Measurements taken from PubChem BioAssay AID485364 (National Center for Advancing Translational Sciences (NCATS), 2010).
Screen size: about 360,000 compounds; about 11,000 (3.1%) were called active. The shares of active, inactive and inconclusive entries below differ from those in the screen. The call rests on the fitted dose curve; in most records, active means well fitted inhibition curve with a large enough effect; inconclusive means small, poorly fitted or top-dose-only effect; inactive means no such curve, though single readings can be large or run the other way. No potency is given beside an inconclusive call; the fits are too rough.

target: Schistosoma mansoni thioredoxin glutathione reductase (TGR) (UniProt Q962Y6); test: qHTS Assay for the Inhibitors of Schistosoma Mansoni Peroxiredoxins; settings: purified TGR, DTNB reduction, TNB absorbance 405 nm; series mostly up to 114 µM; further: nearly all actives have a fitted effect of over 60% in size
In short: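 First, TGR (20 nM dispensed) and NADPH were mixed with compound. Second, a 15 min room-temperature incubation followed. Third, further NADPH and then DTNB were added to start the reaction. Finally, TNB absorbance was monitored kinetically.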
Potency means the concentration at half of the fitted maximal effect; tags describe the fitted curve by direction and shape.

Row | Compound | Potency
1 | Cc1ccc(C2Nc3cccc4cccc(c34)N2)cc1 | active: 17.8 µM
2 | CCc1ccccc1NC(=O)C1CCCN1S(=O)(=O)c1ccc(-c2ccc(=O)[nH]n2)s1 (centres undefined) | inconclusive [inhibitor, partial curve]
3 | O=C(NCCOc1ccccc1Cl)c1ncn[nH]1 | inactive
4 | COc1ccc(N2CC(C(=O)Nc3ccccc3-c3nc(-c4ccc(C)cc4)no3)CC2=O)cc1 (centres undefined) | inactive
5 | Cc1cc(C)c(C#N)c(Sc2ccccc2N)n1 | inconclusive [inhibitor, single point]
6 | O=C1/C(=C\c2ccc3c(c2)OCO3)N2CCC1CC2 | inconclusive [inhibitor, single point]
7 | O=C(CCc1nnc2ccc(N3CCCCC3)nn12)NCc1ccco1 | inactive
8 | COc1cc(NC(=S)N2CCN(S(C)(=O)=O)CC2)cc(OC)c1 | inconclusive [inhibitor, single point]
9 | CCCCC(=O)Nc1ccc(C(=O)NCCc2ccccc2)cc1 | inactive
10 | COc1ccccc1N(CC(=O)NC1CCCCC1)S(=O)(=O)c1ccccc1 | inactive
11 | O=C(NCC(c1ccco1)S(=O)(=O)c1cccs1)c1ccc(C(F)(F)F)cc1 (centres undefined) | active: 4.47 µM
12 | CCSc1nnc(NC(=O)C2CCN(S(=O)(=O)c3cc(C(F)(F)F)ccc3Cl)CC2)s1 | active: 89.1 µM
13 | S=C(NCc1ccco1)Nc1ccc(N2CCOCC2)cc1 | inconclusive [inhibitor, partial curve]
14 | S=C(NCC1CCCO1)Nc1ccc(Cl)c(Cl)c1 (centres undefined) | inconclusive [inhibitor, partial curve, poor fit]
15 | CC(C)(C)c1cc(CN2CCC(O)CC2)cc(C(C)(C)C)c1O | active: 7.94 µM
16 | CCn1ncc(CNC(=O)CCCSc2nc(-c3ccco3)cc(C(F)(F)F)n2)c1C | active: 39.8 µM
17 | CC(NC(=O)c1ccco1)C1COc2ccccc2O1 (centres undefined) | inconclusive [inhibitor, partial curve]
18 | COC(=O)c1sccc1NC(=O)CN(C)NS(=O)(=O)c1ccc(Cl)cc1 | inconclusive [inhibitor, full curve, poor fit]
19 | O=C(Nc1cccc(F)c1)c1ccc(-c2ccccc2Cl)o1 | inconclusive [inhibitor, partial curve]
20 | Cc1ccc(-c2nnc(CSc3nncn3N)o2)cc1 | inactive
21 | CN1C(=O)C(=Cc2ccccc2Oc2ccc(Cl)c(F)c2)C(=O)N(C)C1=O | active: 31.6 µM
22 | CN1CCN(C(=O)CN(C)S(=O)(=O)c2ccc3ccccc3c2)CC1 | inconclusive [inhibitor, single point]
23 | CC(C)n1cnc2c(oc3ccccc32)c1=O | inactive
24 | O=C(Oc1ccc(Cl)c2cccnc12)N1CCCCC1 | inconclusive [inhibitor, partial curve]
25 | CC1=C(C(=O)OCC(C)C)C(c2ccccc2Cl)NC(=O)N1C (centres undefined) | inconclusive [inhibitor, full curve, poor fit]

Row | Compound | Potency
26 | COc1ccc(C(=O)C[n+]2ccc3c(c2)nc(-c2cc(OC)c(OC)cc2OC)n3C)cc1 | inactive
27 | Oc1c(C(c2ccc(Cl)cc2Cl)N2CCCC2)sc2nc(-c3ccco3)nn12 (centres undefined) | inconclusive [inhibitor, single point]
28 | Cc1nn(CCOc2ccccc2)c(=O)n1-c1ccc(Cl)cc1 | inactive
29 | CCOc1ccccc1Nc1nc(N)nc(CN(C)C2CCCCC2)n1 | inconclusive [inhibitor, partial curve]
30 | O=C(Nc1ccc(F)cc1)c1ccc(CSc2ccc(Cl)cc2)o1 | inconclusive [inhibitor, partial curve]
31 | COc1ccc(-c2cn(CCC(=O)O)c(-c3ccc(Cl)nc3)n2)cc1 | inactive
32 | CS(=O)(=O)N1CC(C(=O)NN)Oc2ccc(Cl)cc21 (centres undefined) | inactive
33 | COc1ccccc1C1=NN(C(=O)c2ccccc2)C(c2ccc(Br)cc2)C1 (centres undefined) | inactive
34 | COc1ccc(NC(=O)CN(C)C(=O)/C=C/c2cn(Cc3ccccc3)nc2-c2cccnc2)cc1 | inconclusive [inhibitor, full curve]
35 | COc1ccc(N(CC(=O)NCc2ccco2)C(=O)CNS(=O)(=O)c2ccc(Cl)cc2)cc1 | inconclusive [inhibitor, partial curve, poor fit]
36 | Cc1ccc(CNC(=O)C2CC(c3cccc([N+](=O)[O-])c3)=NO2)o1 (centres undefined) | active: 31.6 µM
37 | CC(C)C(=O)NC(Oc1ccccc1Cl)C(Cl)(Cl)Cl (centres undefined) | active: 25.1 µM
38 | O=C(c1cnn2c(C(F)(F)F)cc(-c3ccco3)nc12)N1CCCCCC1 | inconclusive [inhibitor, full curve]
39 | CN1CCc2c(sc(/N=C/c3cc(Cl)ccc3O)c2C#N)C1 | inconclusive [inhibitor, partial curve]
40 | CCCCNC(=O)C1(c2ccc(OC)cc2)CCOCC1 | inconclusive [inhibitor, partial curve]
41 | Nc1ccccc1Sc1cc(Cl)nnc1Cl | inconclusive [inhibitor, single point]
42 | O=C(COC(=O)c1cccc([N+](=O)[O-])c1)c1ccc(OCc2ccccc2)cc1 | inconclusive [inhibitor, partial curve]
43 | CC(COc1cccc2ccccc12)CN1CCN(C)CC1 (centres undefined) | active: 25.1 µM
44 | CCc1ccc(N2CC(C(=O)N3CCCC3)CC2=O)cc1 (centres undefined) | inactive
45 | COc1ccc(C[C@H]2CN3C(=NC[C@@H]3Cc3ccc(O)cc3)N2C[C@H](C)NC(=O)c2ccc(C)c(Br)c2)cc1 | active: 39.8 µM
46 | O=C(NCc1ccco1)c1cnc2sccn2c1=O | inconclusive [inhibitor, partial curve]
47 | O=[N+]([O-])c1ccc(CN2CCCCCC2)s1 | inconclusive [inhibitor, partial curve]
48 | CC(=O)Nc1ccc(S(=O)(=O)Nc2ccc(C(=O)NCC(=O)O)cc2)cc1 | inconclusive [inhibitor, full curve, poor fit]
49 | C=CCN1C(=O)/C(=c2\sc3nc(=O)c(Cc4ccccc4)nn3c2=O)c2ccccc21 | active: 1.41 µM
50 | CCNc1oc(-c2cccc3ccccc23)nc1C#N | inactive

Row | Compound | Potency
51 | CC(C)CC(OC(=O)c1nsc(Cl)c1Cl)C(=O)NC1CCCC1 (centres undefined) | inactive
52 | CCOc1ccccc1NC(=O)CSc1nnc(-c2ccccn2)n1Cc1ccco1 | inconclusive [inhibitor, partial curve]
53 | CCOc1ccc2nc(SC3CC(=O)N(c4cccc(OC)c4)C3=O)sc2c1 (centres undefined) | inconclusive [inhibitor, partial curve]
54 | O=C(CN1CCC(NC(=O)c2ccccc2Cl)CC1)NCc1ccccc1 | inactive
55 | Cn1nnnc1Sc1ncnc2scc(-c3ccccc3C(F)(F)F)c12 | active: 3.98 µM
56 | CC1=NN(c2ccc(C(=O)OC(C)C)cc2)C(=O)/C1=C\C=C\c1ccco1 | inconclusive [inhibitor, partial curve]
57 | COc1ccc(Br)c2oc(SC)cc(=O)c12 | inconclusive [inhibitor, partial curve]
58 | O=C(COC(=O)C12CC3CC(CC(C3)C1)C2)NCc1ccco1 | inconclusive [inhibitor, partial curve]
59 | CC(C)(C)C(=O)Cn1c(NCCCO)nc2ccccc21 | inactive
60 | COCCn1c(SCC(=O)N2CCCC(C)C2)nnc1-c1ccco1 (centres undefined) | inconclusive [inhibitor, partial curve]
61 | COc1cccc(-n2c(O)c(C=NCCN3CCNCC3)c(=O)[nH]c2=S)c1 | inconclusive [inhibitor, partial curve]
62 | CCc1ccccc1NC(=O)CSc1nc2ccccc2nc1Cc1cccc(OC)c1 | inactive
63 | CCCc1ccc2oc(C(=O)N(C)Cc3cnccn3)c(C)c2c1 | inconclusive [inhibitor, partial curve, poor fit]
64 | O=S(=O)(c1ccc(Br)cc1)N1CCn2cccc2C1c1ccc(Br)cc1 (centres undefined) | inconclusive [inhibitor, partial curve]
65 | CN1CCc2c(sc(N)c2C(N)=O)C1 | inconclusive [inhibitor, partial curve]
66 | COc1ccc(N(C(=O)c2cccnc2)S(=O)(=O)c2cccc([N+](=O)[O-])c2)cc1 | inconclusive [inhibitor, full curve]
67 | Cc1ccc(-n2nnnc2CNC(=O)c2ccc([N+](=O)[O-])o2)cc1C | inconclusive [inhibitor, partial curve]
68 | CCOC(=O)c1ccc(NC(=O)COc2ccccc2CNC2CCCC2)cc1 | inactive
69 | COc1ccc(/C=C/C(=O)O)cc1S(=O)(=O)NCc1cccnc1 | inconclusive [inhibitor, full curve, poor fit]
70 | C=CCn1c(C)cc(C(=O)COC(=O)c2cncc(Br)c2)c1C | inconclusive [inhibitor, partial curve]
71 | Cc1cc(O)c(/C=N/Nc2ccccc2Cl)c(=O)o1 | inconclusive [inhibitor, single point]
72 | Cc1nc2ccc(C(=O)Nc3ccccc3Cl)cc2s1 | inconclusive [inhibitor, single point]
73 | COc1ccc(S(=O)(=O)N2CCC(C(=O)N[C@H](C(=O)NC3CCCC3)C(C)C)CC2)cc1 | active: 89.1 µM
74 | Nc1nnc(Cc2ccccc2)s1 | inactive
